From the supplement of paper PMC10126150 come the findings set out here.

The subject of the data set is ATP. Put plainly: switch fluorescence ratio, 500 uM ATP over buffer (Cy3 cluster intensity, sum of 5 cycles each) (fold (ratio)); higher = stronger signal-on switching upon ATP binding; sequences stand for … in TCGTCGGCAGCGTCAGATGTGTATAAGAGACAGTTTTTTTTTTTTTTTTTTTTTTTTT…TC. To be noted: aptamer strand: ATP DNA aptamer (quencher-CACCTGGGGGAGTATTGCGGAGGAAGG + anchor), 100 nM annealed; ATP concentration: 500 uM; one replicate. In short, it runs like this:
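Five buffer/ATP imaging cycles were run on Cy3-labelled switching-strand clusters on a modified Illumina MiSeq flow-cell, with NaOH stripping and re-annealing between cycles. In each cycle, clusters annealed to 100 nM quencher-labelled ATP aptamer were imaged in selection buffer, then after 15 min with 500 uM ATP at 22 °C. Per cluster, the fluorescence ratio is summed target-cycle over summed buffer-cycle Cy3 intensity, averaged per switch-domain sequence. Only clusters within 100-1000 RFU were kept.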

Values marked as one replicate rest on one cluster of the flow cell; about a third of the high ones do not repeat.
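Note: ATP exposure 15 min at 22 °C before imaging.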

In the case of ATGGATGGTC, the switch fluorescence ratio is 0.958.

Take CACGGGTGGG: the switch fluorescence ratio came out at 1.02.

Take AGTTCAAAAC: the switch fluorescence ratio was determined as 0.972.

With TTAATAAAAG, the switch fluorescence ratio came to 1.01.

On to CGTATGAGTG, for which the switch fluorescence ratio amounted to 0.975.

For ACCTATTCAC, the switch fluorescence ratio was found to be 1.08.

Consider TTCAAAACG, for which the switch fluorescence ratio was 0.963.

On to ATTTGTTC, for which the switch fluorescence ratio came out at 1.08.

As for TCAGGGGCAA, the switch fluorescence ratio worked out at 1.39.

Turning to TGTCTAAGGT, the switch fluorescence ratio is 1.03.

In the case of TTTGGTTCGG, the switch fluorescence ratio is 0.969.

Regarding CTCGACTCTG, the switch fluorescence ratio stood at 0.996.

With TTGACAGTGG, the switch fluorescence ratio worked out at 1.01.

ACCTAACACC: the switch fluorescence ratio was 1.35.

As for CTACGGACAG, the switch fluorescence ratio was found to be 1.29.

As for AGGAAACCCA, the switch fluorescence ratio is 1.02.

Take TTCCAGATGG: the switch fluorescence ratio was found to be 0.99.

With AGGTGTCGTT, the switch fluorescence ratio worked out at 1.04.

For ACGAAGACAT, the switch fluorescence ratio is 0.993.

Regarding AACAAACCAC, the switch fluorescence ratio came out at 1.1.

As for ACGCGTTGGG, the switch fluorescence ratio amounted to 0.933.

Turning to AAGTATCGTG, the switch fluorescence ratio is 1.02.

As to TCAGGTGGGC, the switch fluorescence ratio came to 1.06.

Turning to TTTGTTTCG, the switch fluorescence ratio worked out at 0.991.

On to CGCAGTTGAG, for which the switch fluorescence ratio is 1.09.

Regarding CTAGCTCTGA, the switch fluorescence ratio is 1.01.

As for TACCGTAATG, the switch fluorescence ratio came to 1.34.

Regarding GAATGTCATT, the switch fluorescence ratio is 1.01.

TGTGGGTAAT: the switch fluorescence ratio turned out to be 0.979.

On to GCTGTACCTT, for which the switch fluorescence ratio came out at 1.09.

Consider TACTTGTACT, for which the switch fluorescence ratio was 1.13.

With AGAATGAAGC, the switch fluorescence ratio worked out at 1.03.

GGATCCTATT: the switch fluorescence ratio stood at 1.01.

Regarding CCAGTGTGAA, the switch fluorescence ratio came out at 1.12.

Consider TTGGTCCATA, for which the switch fluorescence ratio amounted to 1.04.

As for TTAAAGTCTT, the switch fluorescence ratio came to 0.996.

Take GGCGTTCCTC: the switch fluorescence ratio came out at 1.51.

Regarding ATTGGATGAG, the switch fluorescence ratio turned out to be 0.996.

GATTCCAAGA: the switch fluorescence ratio was determined as 1.01.

As for ACAATTGTTC, the switch fluorescence ratio stood at 1.02.

For the sequence AGAAATCCGA, the switch fluorescence ratio was 0.972.

On to CTAGTTACGG, for which the switch fluorescence ratio worked out at 1.05.

As to CATTATAACC, the switch fluorescence ratio came out at 0.981.

In the case of GAGCCGATAT, the switch fluorescence ratio is 1.01.

Take GACCCCCTGT: the switch fluorescence ratio stood at 1.17.

With CCTATGCCTA, the switch fluorescence ratio turned out to be 1.2.

Take ACAAGGTTCT: the switch fluorescence ratio stood at 0.999.

Turning to GTGGAGTCGA, the switch fluorescence ratio amounted to 0.969.

As for GGATGTGACG, the switch fluorescence ratio amounted to 1.09.

Consider CCTAGTCATC, for which the switch fluorescence ratio worked out at 1.19.

As to TCAGTTGGAC, the switch fluorescence ratio came to 1.13.

On to TAGCCGCTAT, for which the switch fluorescence ratio was found to be 1.27.

Consider TTTGAAGCTG, for which the switch fluorescence ratio turned out to be 0.943.

Turning to GCAGTAAATT, the switch fluorescence ratio was 1.01.

As for AAGTCACAGT, the switch fluorescence ratio was determined as 1.08.

Turning to CCCCTCATGG, the switch fluorescence ratio was determined as 1.61.

Regarding GGATGAATG, the switch fluorescence ratio is 1.01.

GAATTGAAGG: the switch fluorescence ratio was 0.985.

Take GCTTCTTCT: the switch fluorescence ratio was determined as 0.998.

On to TCTCATAAAT, for which the switch fluorescence ratio is 1.02.

Consider AGTTGGGTAA, for which the switch fluorescence ratio worked out at 1.01.

As for TCTGACTGGT, the switch fluorescence ratio came out at 1.22.

As for CTATTGAGTA, the switch fluorescence ratio worked out at 1.02.

As for CATGACGAGC, the switch fluorescence ratio came out at 1.1.

As for TGACCGACAG, the switch fluorescence ratio was 1.

GGTCCCAACC: the switch fluorescence ratio was 0.99.

As for GTTACAAATT, the switch fluorescence ratio came to 1.06.

In the case of TGCCTGGGGG, the switch fluorescence ratio came out at 0.99.

In the case of ATTCCAGTTG, the switch fluorescence ratio worked out at 1.01.

With AGGCGTCTGG, the switch fluorescence ratio stood at 0.97.

Take TGGGGAGTCT: the switch fluorescence ratio stood at 1.05.

With AGATGGAACC, the switch fluorescence ratio came to 0.987.

With GATTTATGAA, the switch fluorescence ratio came out at 0.975.

For the sequence GCACCTACT, the switch fluorescence ratio was found to be 1.18.

Consider CAGAGTATTG, for which the switch fluorescence ratio was determined as 0.963.

Take ATAATTGAAT: the switch fluorescence ratio worked out at 1.01.

As for GGGGCGAAAT, the switch fluorescence ratio came to 1.02.

For the sequence AGTGAACCTC, the switch fluorescence ratio stood at 1.01.

With TCGAGTTGGG, the switch fluorescence ratio is 0.952.

In the case of ATAGTGATGG, the switch fluorescence ratio is 0.999.

As for GCCATTACAG, the switch fluorescence ratio turned out to be 1.03.

Turning to CGGGTTAGGT, the switch fluorescence ratio came to 0.986.

On to TCGGTGGATT, for which the switch fluorescence ratio was found to be 0.967.

CTGGCGGGGC: the switch fluorescence ratio was 1.

Turning to AGCTAGTTT, the switch fluorescence ratio is 0.941.

On to TTTCGGCCTC, for which the switch fluorescence ratio stood at 1.01.

CTGCGCATA: the switch fluorescence ratio was 6.2.

Regarding TATCATCGG, the switch fluorescence ratio worked out at 1.03.

For the sequence ATGCACGACG, the switch fluorescence ratio was found to be 1.05.

For the sequence CGACGGAGTC, the switch fluorescence ratio was 1.06.

As to CGGGTATAGA, the switch fluorescence ratio worked out at 1.09.

On to CGTTTTCGTG, for which the switch fluorescence ratio came to 0.996.

As to CGGAGGATT, the switch fluorescence ratio turned out to be 1.02.

Take GTTGCATTTT: the switch fluorescence ratio worked out at 1.02.

On to TAGGCCTTTC, for which the switch fluorescence ratio is 1.33.

Turning to CGCCCTCCGG, the switch fluorescence ratio worked out at 1.62.

For the sequence GGAGTTAGGT, the switch fluorescence ratio is 1.03.

Turning to GGTACCCAAG, the switch fluorescence ratio turned out to be 1.01.

Regarding AAACGCCTGT, the switch fluorescence ratio is 1.01.

For the sequence CCTCGGAATT, the switch fluorescence ratio turned out to be 2.3.

As to CGCTGCGTCG, the switch fluorescence ratio amounted to 0.975.

As to GGAAACTCCA, the switch fluorescence ratio worked out at 1.03.

CGTCGACTGT: the switch fluorescence ratio turned out to be 1.02.

With CTAGGGGAGC, the switch fluorescence ratio was 0.961.

Regarding ATCGTGTACT, the switch fluorescence ratio was 1.03.

Turning to GATTGTAGCG, the switch fluorescence ratio amounted to 0.942.

With GCAAAACCGG, the switch fluorescence ratio was determined as 1.93.

Take TCAGTGCGCA: the switch fluorescence ratio was found to be 1.02.

For the sequence TGCAATATGT, the switch fluorescence ratio came out at 1.56.

With CATTATTTTA, the switch fluorescence ratio amounted to 0.963.

As for GCGAATCAGA, the switch fluorescence ratio amounted to 1.03.

GTTTCCGGGG: the switch fluorescence ratio is 1.09.

Turning to TTAAAATGAC, the switch fluorescence ratio turned out to be 1.02.

On to AATTTTGACC, for which the switch fluorescence ratio was 0.995.

As to TGGATATTAG, the switch fluorescence ratio came to 1.03.

On to CGGAGGAGGT, for which the switch fluorescence ratio turned out to be 1.

On to ATCAAGAGA, for which the switch fluorescence ratio is 0.979.

AGGAAAAGGA: the switch fluorescence ratio amounted to 0.997.

In the case of CCGAGGATCA, the switch fluorescence ratio was determined as 1.

Regarding TAGTGTTCGA, the switch fluorescence ratio came out at 1.02.
